Assay results taken from the supplement of paper PMC4967469.
The IC50 comes from the fitted curve, where viability falls to half of the control; fits outside the tested doses are given as limits. AUC is the area under the same curve over the 256-fold range up to the top dose, as a fraction: 1 means no effect, lower means more sensitive. For part of these data: Any top dose called inferred was derived from the fitted curves, not read from the paper. For part of these data: An entry number marks a drug with two screens in the source, which often give different values.

Legend:
Assay in all cases: Viability of human cancer cell lines after 72 h of drug (GDSC screen)
Belinostat = compound: O=C(/C=C/c1cccc(S(=O)(=O)Nc2ccccc2)c1)NO [Belinostat]; conditions: top dose 20 µM; top dose inferred
Description: (§1)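 Human cancer cell lines in 384-well plates, medium with 10% serum, drug for 72 h over a 256-fold dose range (nine 2-fold or five 4-fold steps up to the top dose). Adherent lines were fixed and stained with the nucleic acid dye Syto60, suspension lines read with resazurin; signal relative to control wells, capped at 0 and 100%. One two-parameter sigmoid per drug and line, fitted in a mixed model over all curves with the slope shared within a line.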

SB-715992 = compound: Cc1ccc(C(=O)N(CCCN)[C@@H](c2nc3cc(Cl)ccc3c(=O)n2Cc2ccccc2)C(C)C)cc1 [SB-715992]; conditions: top dose 0.128 µM; top dose inferred
Description: as §1

JQ1 = compound: Cc1sc2c(c1C)C(c1ccc(Cl)cc1)=N[C@@H](CC(=O)OC(C)(C)C)c1nnc(C)n1-2 [JQ1]
Description: as §1

OSI-906 = compound: C[C@]1(O)C[C@@H](c2nc(-c3ccc4ccc(-c5ccccc5)nc4c3)c3c(N)nccn32)C1 [OSI-906]; conditions: top dose 2.56 µM; top dose inferred
Description: as §1

FTI-277 = compound: COC(=O)[C@H](CCSC)NC(=O)c1ccc(NC[C@@H](N)CS)cc1-c1ccccc1 [FTI-277]; conditions: top dose 1.024 µM; top dose inferred
Description: as §1

NSC-207895 = compound: CN1CCN(c2ccc([N+](=O)[O-])c3no[n+]([O-])c23)CC1 [NSC-207895]; conditions: top dose 20 µM; top dose inferred
Description: as §1

YM155 = compound: COCC[n+]1c2c(n(Cc3cnccn3)c1C)C(=O)c1ccccc1C2=O [YM155]; conditions: top dose 5.12 µM
Description: as §1

GSK1070916 = compound: CCn1cc(-c2ccnc3[nH]c(-c4cccc(CN(C)C)c4)cc23)c(-c2ccc(NC(=O)N(C)C)cc2)n1 [GSK1070916]; conditions: top dose inferred
Description: as §1

[1] = top dose 1 µM, screen: GDSC drug entry 1218, top dose inferred
[2] = top dose 2.56 µM, screen: GDSC drug entry 163

| Cell Line | AUC (GSK1070916) | IC50 (GSK1070916) [µM] | further results |
| --- | --- | --- | --- |
| SNU-398 (liver, adherent) | – | – | AUC (Belinostat): 0.41; IC50 (Belinostat): 0.7 µM; AUC (SB-715992): 0.611; IC50 (SB-715992): 0.0164 µM; AUC (JQ1; [1]): 0.906; IC50 (JQ1; [1]): > 1 µM; AUC (JQ1; [2]): 0.514; IC50 (JQ1; [2]): 0.175 µM; AUC (OSI-906): 0.902; IC50 (OSI-906): > 2.56 µM; AUC (FTI-277): 0.763; IC50 (FTI-277): 0.382 µM; AUC (NSC-207895): 0.584; IC50 (NSC-207895): 2.14 µM; AUC (YM155): 0.028; IC50 (YM155): < 0.02 µM |
| BPH-1 (prostate, adherent, top dose 2.56 µM) | 0.218 | 0.0215 | – |
| L-363 (myeloma, suspension, top dose 2.56 µM) | 0.905 | > 2.56 | – |
| CAL-39 (cervix, adherent, top dose 2.56 µM) | 0.973 | > 2.56 | – |
| NCI-H292 (lung adenocarcinoma, adherent, top dose 2.56 µM) | 0.955 | > 2.56 | – |
| YT (lymphoid neoplasm, suspension, top dose 2.56 µM) | 0.964 | > 2.56 | – |
| NB17 (neuroblastoma, adherent, top dose 2.56 µM) | 0.961 | > 2.56 | – |
| GDM-1 (acute myeloid leukaemia, suspension, top dose 2.56 µM) | 0.304 | 0.0464 | – |
| SNU-398 (liver, adherent, top dose 2.56 µM) | 0.531 | 0.195 | – |
| SW1116 (large intestine, adherent, top dose 2.56 µM) | 0.981 | > 2.56 | – |
| MES-SA (uterus, adherent, top dose 2.56 µM) | 0.952 | > 2.56 | – |
| OSC-19 (head and neck, adherent, top dose 2.56 µM) | 0.947 | > 2.56 | – |
| NCI-H1993 (lung adenocarcinoma, adherent, top dose 2.56 µM) | 0.968 | > 2.56 | – |
| RPMI-2650 (head and neck, adherent, top dose 2.56 µM) | 0.934 | > 2.56 | – |
| UACC-812 (breast, adherent, top dose 2.56 µM) | 0.981 | > 2.56 | – |
| L-540 (Hodgkin lymphoma, suspension, top dose 2.56 µM) | 0.907 | > 2.56 | – |
| PC-3 (prostate, adherent, top dose 2.56 µM) | 0.927 | > 2.56 | – |
| MDA-MB-436 (breast, adherent, top dose 2.56 µM) | 0.982 | > 2.56 | – |
| COLO-678 (large intestine, semi-adherent, top dose 2.56 µM) | 0.974 | > 2.56 | – |
| JHH-7 (liver, adherent, top dose 2.56 µM) | 0.978 | > 2.56 | – |
| SK-MEL-3 (melanoma, adherent, top dose 2.56 µM) | 0.968 | > 2.56 | – |
| PL4 (pancreas, adherent, top dose 2.56 µM) | 0.986 | > 2.56 | – |
| PEO1 (ovary, adherent, top dose 2.56 µM) | 0.943 | > 2.56 | – |
| ABC-1 (lung adenocarcinoma, adherent, top dose 2.56 µM) | 0.817 | 1.82 | – |
| NCI-H460 (large cell lung carcinoma, adherent, top dose 2.56 µM) | 0.99 | > 2.56 | – |
| HT-29 (large intestine, adherent, top dose 2.56 µM) | 0.963 | > 2.56 | – |
| SCC-3 (B-cell lymphoma, suspension, top dose 2.56 µM) | 0.988 | > 2.56 | – |
| GRANTA-519 (B-cell lymphoma, suspension, top dose 2.56 µM) | 0.948 | > 2.56 | – |
| EoL-1-cell (haematopoietic neoplasm, suspension, top dose 2.56 µM) | 0.812 | 1.17 | – |
